Measurements as given in patent US10941121B2 (AZIENDA OSPEDALIERA UNIVERSITARIA SENESE, priority 2015, dated 2021).

What was measured:
[1] = system: West Nile virus New York 99 strain (WNV-NY99); assay: WNV infectious cell culture system in Huh7 cells, E protein immunostaining; settings: for EC50: West Nile virus, Huh-7, 48 h, read-out: WNV EC50
[2] = system: Dengue virus type 2 (DENV-2; New Guinea-C Strain); assay: DENV infectious cell culture system in Huh7 cells, E protein immunostaining; settings: for EC50: Dengue virus, DENV2, Huh-7, 48 h, read-out: DENV EC50

Row | Structure (SMILES) | inhibition of WNV infection, in words [1] | EC50 [1] | inhibition of DENV infection, in words [2] | EC50 [2]
1 | CCCCc1cn(-c2ccc(NC(=O)Nc3ccccc3C)cc2)nn1 [Compound 20a, 1-(4-(4-butyl-1H-1,2,3-triazol-1-yl)phenyl)-3-o-tolylurea] | significantly inhibit | 16.1 µM | significantly inhibit | –
2 | Cc1ccccc1NC(=O)Nc1ccc(-n2cc(CCC(C)C)nn2)cc1 [Compound 20b, 1-(4-(4-isopentyl-1H-1,2,3-triazol-1-yl)phenyl)-3-o-tolylurea] | significantly inhibit | 2.83 µM | significantly inhibit | 0.13 µM
3 | CCCCc1cn(-c2ccc(NC(=O)Nc3ccccc3C(F)(F)F)cc2)nn1 [Compound 22a, 1-(4-(4-butyl-1H-1,2,3-triazol-1-yl)phenyl)-3-(2-(trifluoromethyl)phenyl)urea] | significantly inhibit | 0.18 µM | significantly inhibit | 0.12 µM
4 | O=[N+]([O-])c1cccc(S(=O)(=O)Nc2ccccc2O)c1 [Compound 58a, N-(2-hydroxy)-3-nitro-phenylbenzenesulfonamide] | – | 7.16 µM | – | 1.1 µM
